{"source": "PubChem BioAssay AID1347073", "about": "(National Center for Advancing Translational Sciences (NCATS), 2019)", "note": "Hit rate of the full screen: of about 45,000 compounds, about 200 (0.44%) were called active. Another 7% or so got no clear call; they are omitted. Calls follow the shape of the dose curve; as a rule, active = well fitted activation curve with a large enough effect; inconclusive = small, poorly fitted or top-dose-only effect; inactive = no such curve, though single readings can be large or run the other way. The list shows a part of the results."}
{"experiment": "qHTS of TDP-43 Inhibitors: NCGC Sytravon Library Screen; also: 0% is about no effect; nearly all actives have a fitted effect of over 55% in size", "conditions": "yeast TDP-43 toxicity rescue, BacTiter-Glo growth, 24 h; series mostly up to 46.1 µM; growth rescue (activation): at the top concentration", "method_in_brief": "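TDP-43-expressing yeast, pregrown in raffinose, seeded at OD600 0.02 in galactose medium with compound for 24 hr at 30 deg C. Growth read by BacTiter-Glo luminescence, so rescue of toxicity appears as activation.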"}
{"compound": "N#C/C(=C\\c1cccc([N+](=O)[O-])c1)c1nnc2n1CCCCC2", "growth rescue (activation)": "inactive: 3.79%"}
{"compound": "CCCCNC(=O)C1(C)CCN1C(=O)c1ccncc1", "note": "(centres undefined)", "growth rescue (activation)": "inactive: 1.1%"}
{"compound": "COCCNC(=O)C1CCCN(C(=O)Cc2ccc(F)cc2)CC1", "note": "(centres undefined)", "growth rescue (activation)": "inactive: 3.18%"}
{"compound": "COc1cc(C(=O)NC(=S)NNC(=O)[C@H]2C[C@@H]2c2ccccc2)cc(OC)c1OC", "growth rescue (activation)": "inactive: 8.04%"}
{"compound": "COc1ccc(-c2cc(C(=O)N(C)Cc3nc4ccccc4c(=O)[nH]3)c3ccccc3n2)cc1OC", "growth rescue (activation)": "inactive: 5.93%"}
{"compound": "COc1cc(OC)cc(C(=O)NC(=S)Nc2ccc(N3CCCC3)cc2)c1", "growth rescue (activation)": "inactive: -0.492%"}
{"compound": "COc1ccc(C2Nc3ccccc3C(=O)N2c2ccccc2)cc1Cn1cc([N+](=O)[O-])cn1", "note": "(centres undefined)", "growth rescue (activation)": "inactive: 16.9%"}
{"compound": "CC1CCCC(C)N1C(=O)COC(=O)c1cc(=O)[nH]c2ccccc12", "note": "(centres undefined)", "growth rescue (activation)": "inactive: 4.65%"}
{"compound": "O=C1Nc2ccccc2C1=Nc1ccc(-c2nnc3n2CCCCC3)cc1", "growth rescue (activation)": "inactive: 0.967%"}
{"compound": "NC1=NC(=O)/C(=C\\c2ccc(O)c([N+](=O)[O-])c2)S1", "growth rescue (activation)": "inactive: -7.81%"}
{"compound": "Cc1cccc(N(C(=O)CNC(=O)c2ccco2)C(C(=O)NC2CCCC2)c2cccnc2)c1C", "note": "(centres undefined)", "growth rescue (activation)": "inactive: 8.72%"}
{"compound": "CC(=NC(C)C)C1=C(O)CCC1=O", "growth rescue (activation)": "inactive: -9.54%"}
{"compound": "Cc1cc(C(=O)N/N=C/c2ccc(C)s2)n[nH]1", "growth rescue (activation)": "inactive: 5.75%"}
{"compound": "CC1(C(=O)NS(=O)(=O)c2ccc(Cl)cc2)CCN1C(=O)Cc1cccc2ccccc12", "note": "(centres undefined)", "growth rescue (activation)": "inactive: -5.46%"}
{"compound": "CCOc1cc(NC(=S)NCCCOC)c(OCC)cc1NC(=O)c1ccco1", "growth rescue (activation)": "inactive: 21.3%"}
{"compound": "O=C(C[n+]1ccc(Cc2ccccc2)cc1)Nc1ccc([N+](=O)[O-])cc1Cl", "growth rescue (activation)": "inactive: 4.4%"}
{"compound": "Cc1cccc(C(CC(=O)NCc2ccco2)c2ccccc2)c1O", "note": "(centres undefined)", "growth rescue (activation)": "inactive: -2.06%"}
{"compound": "C/C(=N\\NC(=O)COc1ccc(C(C)(C)C)cc1)c1cc2ccccc2o1", "growth rescue (activation)": "inactive: 9.42%"}
{"compound": "Cc1ccc(C(=O)C[n+]2ccc3ccccc3c2)cc1", "growth rescue (activation)": "inactive: -0.473%"}
{"compound": "O=C(CC(=O)NCc1ccccc1)NCc1ccccc1", "growth rescue (activation)": "inactive: -9.71%"}
{"compound": "CCN1C(=O)/C(=C/c2cn(-c3ccccc3)nc2-c2cccnc2)SC1=S", "growth rescue (activation)": "inactive: -0.876%"}
{"compound": "COCc1nnc(NC(=O)c2ccc(Cl)cc2[N+](=O)[O-])s1", "growth rescue (activation)": "inactive: -10.2%"}
{"compound": "C=CCn1c(=O)c(C(=O)Nc2ncccc2O)c(O)c2ccccc21", "growth rescue (activation)": "inactive: 6.56%"}
{"compound": "CCCn1c(SC(C(=O)Nc2cccc(OC)c2)c2ccccc2)nc2ccccc2c1=O", "note": "(centres undefined)", "growth rescue (activation)": "inactive: 11.9%"}
{"compound": "O=C(NN1CCCCC1)c1ccc(COc2ccc(Cl)cc2)cc1", "growth rescue (activation)": "inactive: 4.23%"}
{"compound": "Cc1ccccc1S(=O)(=O)NC(=NCc1ccc(F)cc1)c1ccccc1", "growth rescue (activation)": "inactive: 16.5%"}
{"compound": "CC(C)NC(=O)Nc1nnc([C@H]2C[C@H](O)[C@@H](CO)O2)s1", "growth rescue (activation)": "inactive: 5.93%"}
{"compound": "O=C(C1=NN[C@@H]2C(=O)N(c3ccccc3C(F)(F)F)C(=O)[C@H]12)c1ccc2ccccc2n1", "growth rescue (activation)": "inactive: 10.7%"}
{"compound": "CCC(C(=O)OCC(=O)Nc1cccc(C(C)=O)c1)c1ccccc1", "note": "(centres undefined)", "growth rescue (activation)": "inactive: 21.6%"}
